Results published in the supplement of paper PMC12217912.
Some of the results follow. Sequences were assembled here from the parent chain. Inactive controls read about 0.05.

B1: TEV protease; numbered along this chain (parent)
chain: MGESLFKGPRDYNPISSSICHLTNESDGHTTSLYGIGFGPFIITNKHLFRRNNGTLVVQSLHGVFKVKDTTTLQQHLVDGRDMIIIRMPKDFPPFPQKLKFREPQREERICLVTTNFQTKSMSSMVSDTSCTFPSGDGIFWKHWIQTKDGQCGSPLVSTRDGFIVGIHSASNFTNTNNYFTSVPKNFMELLTNQEAQQWVSGWRLNADSVLWGGHKVFMVKPEEPFQPVKEATQL

Variants of: B1
Assay: raw area under fraction-flipped curve 0-4 h after induction (AUC4h, not background-subtracted), DNA-recorder readout of cleavage of the substrate (dimensionless); higher = more cleavage of the substrate by the protease variant
Details: temperature: 34 °C; time window: 0-4 h after rhamnose induction
Method: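 In vivo DNA recorder in E. coli TOP10(DE3) ΔrhaA at 34 °C. Each TEVp single-site mutant (parent TEVp 0) is paired with a single-site variant of the 7-mer TEVs (canonical ENLYFQ|S). The substrate sits between flexible linkers in a Bxb1-sfGFP-TEVs-SsrA fusion, so cleavage stabilises Bxb1 and speeds flipping of a recombination array, read by NGS. The value is the raw area under the fraction-flipped curve over 0-4 h after rhamnose induction (AUC4h), with ≥20 reads per time point. It is not background-subtracted; inactive controls average about 0.047.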
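Note: Bxb1 expression induced with 0.2% (w/v) L-rhamnose at OD600 near 0.5, cultures sampled hourly, flipped fraction per protease–substrate barcode pair counted by paired-end Illumina sequencing.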

| Variant | area with substrate ENLAFQS | area with substrate ENLDFQS | area with substrate ENLEFQS | area with substrate ENLFFQS | area with substrate ENLHFQS | area with substrate ENLIFQS | area with substrate ENLKFQS | area with substrate ENLLFQS | area with substrate ENLMFQS | area with substrate ENLNFQS |
| --- | --- | --- | --- | --- | --- | --- | --- | --- | --- | --- |
| K7V | 0.0511 | 0.0705 | 0.0654 | 0.112 | 0.0618 | 0.0565 | 0.113 | 0.0711 | 0.0152 | 0.0527 |
| K66W |  | 0.065 |  |  | 0.0345 |  | 0.0844 |  |  |  |
| K66E | 0.0498 | 0.0638 | 0.0627 | 0.113 |  |  | 0.0883 |  |  |  |
| K66Y | 0.063 | 0.0759 | 0.0592 | 0.0929 | 0.0629 | 0.0882 | 0.0796 |  | 0.0558 | 0.0722 |
| N193Q | 0.0573 | 0.0738 | 0.0588 | 0.0842 | 0.0651 |  |  |  | 0.0726 |  |
| L61F | 0.0478 | 0.063 |  | 0.0775 |  |  |  |  |  | 0.07 |
| M125Y | 0.034 | 0.0575 |  | 0.0739 | 0.0792 |  |  |  |  |  |
| K98R | 0.0787 | 0.0677 |  | 0.0948 |  | 0.103 | 0.0796 |  |  | 0.0684 |
| I110F | 0.0469 | 0.0549 | 0.0597 | 0.0578 | 0.0449 | 0.0477 | 0.0558 |  |  | 0.0612 |
| I110R | 0.0638 | 0.0543 | 0.0606 |  |  | 0.0529 | 0.0657 | 0.0437 |  |  |
| V78N | 0.0592 | 0.0602 |  | 0.0626 |  |  | 0.0625 |  | 0.0463 |  |
| M83R | 0.0508 | 0.0535 | 0.0451 |  |  |  | 0.0735 | 0.0116 |  |  |
| N175A | 0.0412 | 0.0585 | 0.0699 | 0.088 | 0.0541 |  | 0.092 | 0.0415 |  |  |
| N177M | 0.0549 | 0.0586 |  | 0.122 |  |  |  | 0.0725 |  |  |
| L77R | 0.0584 | 0.0671 | 0.0612 | 0.064 | 0.0634 |  | 0.0574 | 0.0448 |  |  |
| S124G | 0.0743 | 0.052 |  | 0.0575 | 0.0793 |  |  | 0.0649 |  | 0.0691 |
| S209E | 0.0807 | 0.0715 | 0.0671 | 0.0864 |  | 0.0887 | 0.0952 | 0.0721 |  | 0.0557 |

Same assay, conditions: temperature: 34 °C; time window: 0-4 h after rhamnose induction

| Variant | area with substrate ENLPFQS | area with substrate ENLRFQS | area with substrate ENLSFQS | area with substrate ENLVFQS | area with substrate ENLCFQS | area with substrate ENLGFQS | area with substrate ENLQFQS | area with substrate ENLWFQS | area with substrate ENLTFQS |
| --- | --- | --- | --- | --- | --- | --- | --- | --- | --- |
| K7V | 0.0886 | 0.0651 | 0.0545 | 0.0669 |  |  |  |  |  |
| K66W |  | 0.0666 | 0.0597 |  | 0.0657 |  |  |  |  |
| K66E |  | 0.0849 | 0.0439 | 0.0713 |  | 0.0438 | 0.0633 |  |  |
| K66Y | 0.0723 | 0.0807 | 0.0659 | 0.1 | 0.0755 | 0.0653 |  | 0.0938 |  |
| N193Q | 0.112 |  |  |  |  |  |  |  |  |
| L61F | 0.0495 |  | 0.0597 | 0.0814 |  | 0.0587 |  |  |  |
| M125Y |  |  |  |  |  | 0.0863 |  |  |  |
| K98R | 0.0412 | 0.0924 | 0.0598 |  |  |  |  | 0.0597 |  |
| I110F | 0.0489 | 0.0583 | 0.0497 | 0.046 | 0.0526 |  | 0.052 | 0.054 | 0.066 |
| I110R |  |  | 0.0417 |  | 0.0645 | 0.0593 |  | 0.0308 |  |
| V78N |  | 0.0471 | 0.0673 |  | 0.0439 |  |  | 0.0572 |  |
| M83R | 0.0542 |  |  |  | 0.0555 | 0.0493 |  | 0.0485 | 0.054 |
| N175A | 0.0623 | 0.0802 | 0.0559 |  |  |  |  | 0.0691 |  |
| N177M |  |  |  |  |  |  |  | 0.0833 | 0.076 |
| L77R |  |  |  |  |  |  |  | 0.0407 |  |
| S124G |  |  | 0.0751 |  | 0.0765 |  | 0.0625 |  |  |
| S209E |  |  |  |  |  | 0.0767 | 0.0568 |  |  |
